# The list shows a part of the results.
# System: HSkMC (human skeletal muscle cells)
# Test: cytotoxicity call (relative viability < 0.9)
# Details: 10 µM
row,SMILES,cytotoxicity call
1,CC(C)NC(=O)N(C)C[C@@H]1OCCCC[C@@H](C)Oc2ccc(NC(=O)Nc3ccc(F)cc3)cc2C(=O)N([C@H](C)CO)C[C@@H]1C,inactive
2,C[C@H]1CCCCO[C@H](CN(C)Cc2ccc(C(F)(F)F)cc2)[C@@H](C)CN([C@@H](C)CO)C(=O)c2cc(NS(=O)(=O)c3ccc(Cl)cc3)ccc2O1,active
3,C[C@@H]1CCCCO[C@H](CN(C)C(=O)Nc2ccc3c(c2)OCO3)[C@H](C)CN([C@@H](C)CO)C(=O)c2cc(NS(=O)(=O)c3ccc(Cl)cc3)ccc2O1,inactive
4,C[C@H](CO)N1C[C@H](C)[C@@H](CN(C)S(C)(=O)=O)Oc2ccc(NS(=O)(=O)c3cccs3)cc2C1=O,inactive
5,O=C(N[C@@H]1C=C[C@@H](CC(=O)N2CCOCC2)O[C@@H]1CO)c1ccc2c(c1)OCO2,inactive
6,COC(=O)C[C@@H]1CC[C@H]2[C@@H](COC[C@H](O)CN2S(=O)(=O)c2ccc(F)cc2)O1,inactive
7,CC(C)NC(=O)N(C)C[C@@H]1Oc2c(NS(=O)(=O)c3cccs3)cccc2C(=O)N([C@@H](C)CO)C[C@H]1C,inactive
8,C[C@@H]1CCCCO[C@H](CN(C)C(=O)Nc2cccc3ccccc23)[C@@H](C)CN([C@H](C)CO)C(=O)c2cc(NS(=O)(=O)c3ccccc3)ccc2O1,inactive
9,CCS(=O)(=O)N1C[C@]2(C1)CN([C@@H](CO)c1c2c2ccc(cc2n1C)OC)S(=O)(=O)c1ccccc1,inactive
10,COCCCNC(=O)[C@@]1(Sc2ccc(C)cc2)CC(=O)N(C2CCCCC2)[C@@H]1c1ccc(CO)cc1I,inactive
11,C[C@@H]1CN([C@H](C)CO)C(=O)c2cc(NC(=O)C3CCCCC3)ccc2O[C@H]1CN(C)S(=O)(=O)c1cn(C)cn1,inactive
12,C[C@@H]1CN([C@@H](C)CO)C(=O)Cc2cc(NC(=O)c3ccncc3)ccc2O[C@H]1CN(C)Cc1ccc(Oc2ccccc2)cc1,inactive
13,O=C(C[C@H]1CC[C@@H](NC(=O)c2cccnc2)[C@@H](CO)O1)NCCN1CCCCC1,inactive
14,C[C@H]1CCCCO[C@@H](CN(C)C(=O)Nc2ccc(C(F)(F)F)cc2)[C@@H](C)CN([C@@H](C)CO)C(=O)c2cc(N(C)C)ccc2O1,inactive
15,C[C@@H]1CN([C@@H](C)CO)C(=O)c2cc(NC(=O)Nc3cccc4ccccc34)ccc2O[C@H]1CN(C)Cc1ccc(Cl)c(Cl)c1,inactive
16,C[C@@H]1CN([C@H](C)CO)C(=O)c2cccc(NS(=O)(=O)c3cn(C)cn3)c2O[C@H]1CN(C)S(=O)(=O)c1cccs1,inactive
17,C[C@H](CO)N1C[C@H](C)[C@@H](CN(C)C(=O)Nc2ccc(C(F)(F)F)cc2)OCCCC[C@H](C)Oc2ccc(NS(=O)(=O)c3ccccc3)cc2C1=O,inactive
18,C[C@@H]1CCCCO[C@@H](CN(C)Cc2ccncc2)[C@@H](C)CN([C@H](C)CO)C(=O)c2cc(NC(=O)CCC(F)(F)F)ccc2O1,inactive
19,C[C@@H]1CN([C@H](C)CO)C(=O)c2cccc(NC(=O)Nc3ccc(F)cc3)c2O[C@H]1CN(C)C(=O)Nc1ccc(C(F)(F)F)cc1,inactive
20,CCS(=O)(=O)Nc1ccc2c(c1)C(=O)N(C)C[C@H](OC)[C@@H](C)CN(Cc1nccs1)[C@H](C)CO2,inactive

row,SMILES,cytotoxicity call
1,C[C@H]1CN([C@@H](C)CO)S(=O)(=O)c2ccc(C#Cc3ccc(F)cc3)cc2O[C@H]1CN(C)CC1CC1,inactive
2,C[C@H](CO)N1C[C@H](C)[C@H](CN(C)S(=O)(=O)c2ccccc2)OCCCC[C@H](C)Oc2ccc(NS(=O)(=O)c3cn(C)cn3)cc2C1=O,inactive
3,CC(C)(C)c1ccc(NC(=O)c2ccc(C(C)(C)C)s2)cc1,inactive
4,Cc1noc(C)c1NC(=O)Nc1ccc2c(c1)C(=O)N([C@@H](C)CO)C[C@H](C)[C@@H](CN(C)Cc1ccccc1)OCCCC[C@H](C)O2,inactive
5,C[C@H](CO)N1C[C@H](C)[C@@H](CN(C)Cc2ccncc2)Oc2c(NS(=O)(=O)c3cn(C)cn3)cccc2C1=O,inactive
6,C[C@H](CO)N1C[C@H](C)[C@@H](CN(C)Cc2ccc(Cl)c(Cl)c2)Oc2c(NS(=O)(=O)c3ccccc3)cccc2C1=O,inactive
7,C[C@@H]1CCCCO[C@H](CN(C)C(=O)c2ccccc2)[C@@H](C)CN([C@H](C)CO)C(=O)c2cc(NC(=O)CCC(F)(F)F)ccc2O1,inactive
8,C[C@@H]1CN([C@H](C)CO)C(=O)c2cc(NC(=O)Nc3ccc(C(F)(F)F)cc3)ccc2O[C@@H](C)CCCCO[C@@H]1CN(C)S(=O)(=O)c1cn(C)cn1,inactive
9,C[C@H]1CN([C@@H](C)CO)C(=O)CCCn2nncc2CO[C@H]1CN(C)S(=O)(=O)c1ccc(Oc2ccccc2)nc1,inactive
10,O=C(C[C@H]1NC(=O)NC1=O)Nc1ccccc1,inactive
11,Cc1ccc(S(=O)(=O)N(C)C[C@H]2Oc3ccc(NC(=O)C4CC4)cc3C(=O)N([C@@H](C)CO)C[C@H]2C)cc1,inactive
12,Cc1noc(C)c1NC(=O)N(C)C[C@@H]1Oc2c(NC(=O)NC(C)C)cccc2C(=O)N([C@H](C)CO)C[C@@H]1C,inactive
13,Cc1noc(C)c1NC(=O)N(C)C[C@H]1Oc2ccc(NC(=O)Nc3cccc4ccccc34)cc2CC(=O)N([C@@H](C)CO)C[C@H]1C,inactive
14,OCCN1CCCNCC1,inactive
15,[O-]/[N+](=N\O[C@H]1O[C@H](CO)[C@@H](O)[C@H](O)[C@@H]1O)N1CCCC1,inactive
16,C[C@H]1CN([C@@H](C)CO)C(=O)c2cccc(NC(=O)Nc3ccc(C(F)(F)F)cc3)c2O[C@H]1CN(C)C(=O)Nc1ccc(F)cc1,inactive
17,Cc1noc(C)c1S(=O)(=O)Nc1cccc2c1O[C@H](CN(C)S(=O)(=O)c1cccs1)[C@H](C)CN([C@@H](C)CO)C2=O,inactive
18,C[C@H](CO)N1C[C@H](C)[C@@H](CN(C)C(=O)Nc2ccc3c(c2)OCO3)OCCCC[C@H](C)Oc2ccc(NC(=O)Cc3ccccc3)cc2C1=O,inactive
19,C[C@H]1CN([C@@H](C)CO)C(=O)c2cc(C#CCN(C)C)cnc2O[C@@H]1CN(C)C(=O)CCN1CCCCC1,inactive
20,C[C@H](CO)N1C[C@H](C)[C@@H](CN(C)Cc2ccc(Oc3ccccc3)cc2)Oc2ccc(NC(=O)Nc3ccc(F)cc3)cc2CC1=O,inactive

# Source: the antibiotic and cytotoxicity screens of Wong et al. (2023)
